Reference: the supplement of paper PMC10126150
Sequences with one replicate were seen in a single cluster, so their values are uncertain.

Each sequence was assayed on ATP (assay: switch fluorescence ratio, 500 uM ATP over buffer (Cy3 cluster intensity, sum of 5 cycles each) (fold (ratio)); higher = stronger signal-on switching upon ATP binding; sequences stand for … in TCGTCGGCAGCGTCAGATGTGTATAAGAGACAGTTTTTTTTTTTTTTTTTTTTTTTTT…TC). Conditions: aptamer strand: ATP DNA aptamer (quencher-CACCTGGGGGAGTATTGCGGAGGAAGG + anchor), 100 nM annealed; ATP concentration: 500 uM; one replicate.
Outline: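 For every switch-domain sequence, the fluorescence ratio is the mean of per-cluster values, each being summed target-cycle Cy3 intensity over summed buffer-cycle Cy3 intensity. Clusters outside 100-1000 RFU were excluded. On a modified Illumina MiSeq flow-cell, the Cy3-labelled switching-strand clusters were annealed to 100 nM quencher-labelled ATP aptamer, imaged in selection buffer and then after 15 min with 500 uM ATP at 22 °C. Five such cycles were run, with NaOH stripping and re-annealing between them.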
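Also: ATP exposure 15 min at 22 °C before imaging.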

Row | Sequence | switch fluorescence ratio
1 | ACTCATCACC | 1.14
2 | CTTTAGGCGA | 1.04
3 | TTCCCGTGAA | 1.04
4 | CTGTTCACG | 0.964
5 | TTCCAGGTCT | 1.05
6 | CCTGAAGGTA | 1.03
7 | TATGAAAGAT | 0.989
8 | GCCTCGGA | 0.966
9 | AGGGACGGTT | 0.967
10 | AATCACGG | 1.05
11 | ACCCGGGTAT | 2.01
12 | AAGGCCCTTC | 0.979
13 | CTATGGAACG | 0.99
14 | TGCTACTTGG | 1.03
15 | GCAGGCCCGG | 1.01
16 | CAGTTTCTTA | 1.08
17 | TGTTGTGAAC | 1.04
18 | GCTCTATCTG | 0.964
19 | TATATCTGGT | 1
20 | CTATCAGCG | 1.03
21 | TAAGTTTCGT | 1
22 | ACATTCAGGC | 1.03
23 | GCGGGATAAT | 1.03
24 | GGACACGTGG | 0.941
25 | TTTTGTCTCG | 1.04

Row | Sequence | switch fluorescence ratio
26 | TCACGACAGA | 1.13
27 | TACGACACAA | 2.42
28 | ATAGTGATCT | 1
29 | ATCTAGGGAT | 1
30 | GAGGGTAAAG | 1
31 | CGGATACTGG | 0.959
32 | ATGCGGATGC | 0.988
33 | ACATTGTTAC | 1.1
34 | ATCAGCAGAG | 1.09
35 | AAATTTTATA | 1.02
36 | CCCTAGGATA | 1.02
37 | TCAATTGATC | 1.01
38 | GGGCTTAAAC | 0.998
39 | GCCCCACTGG | 1.51
40 | GCTGGAGGCT | 0.965
41 | ATGGCAAGGG | 1.03
42 | GCTATTTAGC | 1.1
43 | AAGGGCTAAG | 1.01
44 | AAAAACATTG | 1.07
45 | TAATGCTGAA | 1
46 | TCTACGGCAC | 2.06
47 | TGATAGGCTT | 1
48 | TCCACACAGT | 0.989
49 | GCATCCAGTC | 0.995
50 | CGTTTGTGCC | 1.03

Row | Sequence | switch fluorescence ratio
51 | GGACAAGCAT | 1.09
52 | GATCCAGTTT | 0.957
53 | CCCCTATGTT | 1.03
54 | TCCCACGATC | 1.18
55 | TCGGAATTCT | 1.09
56 | ACTTATTGGC | 1.06
57 | TCGTGCTTGC | 0.956
58 | TTGGCGGGTC | 0.998
59 | GCAGAATAGG | 0.963
60 | AATACTAGGT | 1
61 | AAGAAGAATG | 0.984
62 | GCCGACGCGC | 1.5
63 | TGGTCATGTA | 0.975
64 | AGACCTGTAA | 1.02
65 | GGGCCACCTC | 1.03
66 | GCAGCAAATA | 1.14
67 | TTCTCCTCAC | 1.81
68 | TCCGGGTTCC | 1.01
69 | GCAGAAACTA | 1.2
70 | ACGATGGCAG | 1.09
71 | CAAATTGATT | 0.971
72 | AGACTAACCG | 0.974
73 | TTAATCGACC | 1.06
74 | AATGCATGTA | 0.97
75 | GTGGACTTAT | 1.02

Row | Sequence | switch fluorescence ratio
76 | ACGGGCATAT | 1.22
77 | GTACTTCAGG | 1.02
78 | TGCCTTTATT | 1
79 | CCGTAAATTT | 1.08
80 | TACATGCCTG | 0.958
81 | GCAGTTGTTT | 1.03
82 | TGGGAGCTGT | 0.987
83 | AAAAGTTAGT | 0.988
84 | TGTATAGGGA | 1.02
85 | ACTCACTCAG | 2.16
86 | TTAAGGGG | 1.04
87 | TGGCCAGAGG | 0.998
88 | GTCGTCCAGA | 0.951
89 | CAGACACGAT | 1.11
90 | CGAAACGAAA | 0.97
91 | ATATTTGGC | 0.897
92 | GTGGCATTA | 0.987
93 | TGGGAATGAG | 1.01
94 | TGCAACGTGT | 0.964
95 | TTTTGTAGG | 1.02
96 | GCATCATTGG | 1.02
97 | GGCTACGGAG | 0.974
98 | CCAGAATCAA | 1.05
99 | GCGTTTGTTT | 0.995
100 | AAGGACTCAG | 1.04

Row | Sequence | switch fluorescence ratio
101 | TGACAAAGGA | 0.903
102 | CGTGAAGTTT | 0.959
103 | ATTTTGGATC | 0.981
104 | TGAATGCTGT | 1.04
105 | GATGTAGAGC | 0.973
106 | AGGGACGTGT | 1.02
107 | TGAGAAAAG | 1.01
108 | GAGGCGTGAA | 1.02
109 | CAGAACTAAG | 1.04
110 | GGCTACACGG | 1.11
111 | AACCCGTTCA | 1.03
112 | CTGTTAAAGC | 1.04
113 | GGACATTCGT | 0.998
114 | GAAAGCGTGG | 1.04
115 | GAAGGCTTTG | 0.98
116 | CATTATAGAC | 1.07
117 | GAAGATATGC | 1.04
118 | CTCATTATTT | 1.01
119 | CGATGAGCTT | 1
120 | GATCTAGATC | 0.977
121 | AAGATGCCTC | 0.963
122 | TTGTTAGACT | 1
123 | TGCAAGCCGG | 1
124 | TCCATTATTG | 1.02
125 | TAGGTTGCAT | 0.956

Row | Sequence | switch fluorescence ratio
126 | TATTCCAAGG | 1.02
127 | ATTCTTGTCA | 0.993
128 | ACCTTATAAA | 1.05
129 | GAGGCAGATC | 1.29
130 | ACCGACCCGG | 1.04
131 | ATCCTGATGG | 0.994
132 | GACTTCGGCG | 1.09
133 | AAGGGTTTCA | 1
134 | ATAATAAGTT | 1.02
135 | GACGGCACTG | 1.15
136 | TGTGATTAAG | 1.04
137 | AGGTGTTCTG | 0.956
138 | GGAGCTACGA | 1.31
139 | GTTACCCGGT | 0.965
140 | ACGTATTGTT | 1.09
141 | GCGACGAGCC | 1.07
142 | CGCCAACAGA | 1.03
143 | TTGGTGTAGG | 1.01
144 | TCATATCAGA | 1.01
145 | CGGATGGTCT | 0.978
146 | TGAAGGTGCA | 0.961
147 | AGGGGGATA | 1.03
148 | AAGTCGTAAT | 0.982
149 | TAGGCCATTT | 0.999
150 | AATAATGGGC | 0.963

Row | Sequence | switch fluorescence ratio
151 | CTGACATAGA | 1.01
152 | GTGCGTTAAT | 1.01
153 | GCTGCCTCAT | 1.06
154 | CGCGTCGGG | 1.01
155 | TCGGCATATT | 1.02
156 | GGTTAATGTG | 1
157 | TAAACGTAAA | 1.1
158 | GTACTTTGGG | 1.04
159 | CATCTTTTCT | 0.962
160 | TCTTTATTGA | 1.02
161 | CTTGGATTGA | 1
162 | AGTCCTCGCA | 2.88
163 | AGAAAATCC | 1.09
164 | TCACGTTACC | 1.67
165 | TCAAGTAGCT | 1.02
166 | TAAAACCTGT | 1.07
167 | CTGGTCTACG | 0.968
168 | TCACCATAAA | 1.02
169 | CCTGGCCAAA | 0.974
170 | TGATGATTGG | 0.993
171 | CGTCGTTGCT | 1
172 | TGGGAGCGGA | 1.04
173 | GGGCTGTGCG | 1.03
174 | TTTGGCAAGC | 2.08
175 | AAGAGATCTT | 1.06

Row | Sequence | switch fluorescence ratio
176 | GTGCGAGTCC | 0.976
177 | ACAACGTGTA | 0.96
178 | TTTGGCTCCA | 1
179 | TTTAGAACCA | 1.02
180 | TGACGGGTTG | 1.05
181 | CGGAAGAATC | 0.992
182 | TGGGGCGGCT | 1.03
183 | TGAAACCATC | 1.1
184 | AGCACCGATT | 1.01
185 | ATCAAAAGGG | 1.01
186 | CATTGAAGTT | 0.995
187 | TAGCAATTCG | 1.84
188 | GGGCGTTGTA | 1.02
189 | TCTGAGGCGG | 1.09
190 | TTTGGTCAAT | 0.999
191 | CACGAAACG | 1.14
192 | GGATCAAAGA | 0.872
193 | GTTTACGACC | 1.12
194 | TTCTACGCCG | 0.827
195 | CGAGTTGGGA | 0.987
196 | TTGCCTCGGA | 1.02
197 | GGGCATCGCG | 0.994
198 | CTGGGAAAAT | 0.999
199 | CGGGGTGGTC | 0.909
200 | CCAGGAAG | 1.02
